Sequences with one replicate were seen in a single cluster, so their values are uncertain.
The sequences below were run on ATP (assay: switch fluorescence ratio, 500 uM ATP over buffer (Cy3 cluster intensity, sum of 5 cycles each) (fold (ratio)); higher = stronger signal-on switching upon ATP binding; sequences stand for … in TCGTCGGCAGCGTCAGATGTGTATAAGAGACAGTTTTTTTTTTTTTTTTTTTTTTTTT…TC). Settings: aptamer strand: ATP DNA aptamer (quencher-CACCTGGGGGAGTATTGCGGAGGAAGG + anchor), 100 nM annealed; ATP concentration: 500 uM; one replicate.
How it was run: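 Switching-strand clusters labelled with Cy3 on a modified Illumina MiSeq flow-cell were annealed to 100 nM quencher-labelled ATP aptamer, imaged in selection buffer, and re-imaged after 15 min with 500 uM ATP at 22 °C. This was done over five cycles with NaOH stripping and re-annealing in between. The fluorescence ratio is summed target-cycle over summed buffer-cycle Cy3 intensity per cluster, averaged per switch-domain sequence, excluding clusters outside 100-1000 RFU.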
CGGCGAAGGT was tested, and the switch fluorescence ratio was 1.01.
Work on CGGCGAGCCA yielded a switch fluorescence ratio of 1.05.
CGGCGATTTT was tested, and the switch fluorescence ratio was 1.13.
Sequence CGGCGGGCCG has a switch fluorescence ratio of 0.999.
Sequence CGGCGTAAT has a switch fluorescence ratio of 1.01.
CGGCTCTCTG gave a switch fluorescence ratio of 0.988.
Work on CGGCTCTTTA yielded a switch fluorescence ratio of 0.985.
In the case of CGGCTTTATC, the switch fluorescence ratio is reported as 1.05.
Work on CGGCTTTCCT yielded a switch fluorescence ratio of 1.03.
Work on CGGGAAAAGG yielded a switch fluorescence ratio of 0.994.
Work on CGGGAACCAC yielded a switch fluorescence ratio of 1.02.
For CGGGACAGCA, the switch fluorescence ratio was 0.983.
Sequence CGGGACTAGG has a switch fluorescence ratio of 0.961.
With CGGGACTGGT the switch fluorescence ratio was 0.976.
With CGGGAGCGAG the switch fluorescence ratio was 1.01.
With CGGGAGGCCA the switch fluorescence ratio was 0.953.
For CGGGAGTGAT, the switch fluorescence ratio was 0.976.
CGGGATTGAC showed a switch fluorescence ratio of 1.02.
For CGGGCAGCTC, the switch fluorescence ratio was 1.03.
CGGGCATTAA gave a switch fluorescence ratio of 1.2.
In the case of CGGGCCAGA, the switch fluorescence ratio is reported as 0.987.
Work on CGGGCGAAGG yielded a switch fluorescence ratio of 0.938.
For CGGGCTGCC, the switch fluorescence ratio was 1.01.
For CGGGGAATCC, the switch fluorescence ratio was 0.945.
CGGGGAGGAT gave a switch fluorescence ratio of 0.955.
CGGGGAGTTA was tested, and the switch fluorescence ratio was 0.994.
CGGGGCAATG showed a switch fluorescence ratio of 2.92.
With CGGGGGACTT the switch fluorescence ratio was 0.999.
CGGGGGCCTG showed a switch fluorescence ratio of 0.894.
Work on CGGGGGGTGA yielded a switch fluorescence ratio of 1.07.
CGGGGGTAGC showed a switch fluorescence ratio of 0.978.
CGGGGTCGCA gave a switch fluorescence ratio of 0.991.
CGGGTAATCA showed a switch fluorescence ratio of 0.998.
With CGGGTAATGC the switch fluorescence ratio was 2.07.
CGGGTAGGC showed a switch fluorescence ratio of 0.952.
For CGGGTATGAG, the switch fluorescence ratio was 0.95.
Work on CGGGTATT yielded a switch fluorescence ratio of 0.985.
In the case of CGGGTCTATC, the switch fluorescence ratio is reported as 0.987.
CGGGTGAGAC showed a switch fluorescence ratio of 1.09.
CGGGTGGAAA gave a switch fluorescence ratio of 1.05.
Sequence CGGGTTGCTT has a switch fluorescence ratio of 1.04.
For CGGGTTTTCT, the switch fluorescence ratio was 0.998.
For CGGTACAG, the switch fluorescence ratio was 1.01.
For CGGTAGAAAT, the switch fluorescence ratio was 1.02.
In the case of CGGTAGACGG, the switch fluorescence ratio is reported as 1.01.
Sequence CGGTAGGCG has a switch fluorescence ratio of 0.944.
CGGTATAGCG gave a switch fluorescence ratio of 1.
CGGTATCAAA was tested, and the switch fluorescence ratio was 0.993.
Sequence CGGTATGGTG has a switch fluorescence ratio of 1.16.
Sequence CGGTATTAGC has a switch fluorescence ratio of 1.04.
In the case of CGGTCACAAA, the switch fluorescence ratio is reported as 1.
CGGTCAGCGC showed a switch fluorescence ratio of 0.98.
CGGTCCATCA showed a switch fluorescence ratio of 0.958.
Sequence CGGTCCTGTA has a switch fluorescence ratio of 0.997.
Work on CGGTCTCTCA yielded a switch fluorescence ratio of 0.985.
Work on CGGTGAAGGA yielded a switch fluorescence ratio of 0.974.
Sequence CGGTGACTAG has a switch fluorescence ratio of 0.994.
Work on CGGTGCGAGG yielded a switch fluorescence ratio of 0.967.
CGGTGGCCCC was tested, and the switch fluorescence ratio was 0.962.
CGGTTAAATT showed a switch fluorescence ratio of 1.
With CGGTTATGCT the switch fluorescence ratio was 1.04.
With CGGTTCACGG the switch fluorescence ratio was 1.01.
Sequence CGGTTCACTA has a switch fluorescence ratio of 0.993.
With CGGTTCGATT the switch fluorescence ratio was 1.03.
Sequence CGGTTCTCAA has a switch fluorescence ratio of 0.938.
CGGTTCTGGG showed a switch fluorescence ratio of 1.
For CGGTTGGACG, the switch fluorescence ratio was 1.08.
For CGGTTGTTTA, the switch fluorescence ratio was 1.
For CGGTTTAAGG, the switch fluorescence ratio was 1.03.
Sequence CGGTTTCCTT has a switch fluorescence ratio of 1.65.
In the case of CGTAACAGGG, the switch fluorescence ratio is reported as 0.979.
For CGTAACCATC, the switch fluorescence ratio was 1.02.
In the case of CGTAAGGGCA, the switch fluorescence ratio is reported as 1.04.
For CGTAAGTAGT, the switch fluorescence ratio was 0.991.
With CGTAATAATT the switch fluorescence ratio was 1.05.
For CGTAATAGTA, the switch fluorescence ratio was 1.18.
In the case of CGTACCAAC, the switch fluorescence ratio is reported as 1.17.
Sequence CGTACCCCGT has a switch fluorescence ratio of 1.
Sequence CGTACGACAC has a switch fluorescence ratio of 1.47.
CGTACGACTG showed a switch fluorescence ratio of 1.01.
CGTACGGCAA gave a switch fluorescence ratio of 5.12.
CGTACTACCT was tested, and the switch fluorescence ratio was 1.21.
CGTACTGCGT was tested, and the switch fluorescence ratio was 0.941.
CGTACTTGAC gave a switch fluorescence ratio of 1.14.
In the case of CGTAGAAACG, the switch fluorescence ratio is reported as 0.997.
CGTAGCACGG showed a switch fluorescence ratio of 1.29.
Sequence CGTAGCAGCA has a switch fluorescence ratio of 2.37.
Work on CGTAGCCAAC yielded a switch fluorescence ratio of 2.45.
Work on CGTAGCCTGC yielded a switch fluorescence ratio of 1.14.
With CGTAGCGACT the switch fluorescence ratio was 1.09.
CGTAGGGTGC showed a switch fluorescence ratio of 1.1.
For CGTAGTAGAA, the switch fluorescence ratio was 1.05.
Sequence CGTAGTATGC has a switch fluorescence ratio of 1.4.
Work on CGTAGTTAT yielded a switch fluorescence ratio of 1.1.
In the case of CGTAGTTCTG, the switch fluorescence ratio is reported as 0.95.
With CGTATAAACA the switch fluorescence ratio was 0.981.
CGTATAATTA gave a switch fluorescence ratio of 1.05.
Sequence CGTATCGGAA has a switch fluorescence ratio of 1.02.
With CGTATCTCAC the switch fluorescence ratio was 0.996.
CGTATGACGT gave a switch fluorescence ratio of 1.03.
With CGTATGCGTA the switch fluorescence ratio was 0.966.
For CGTATGGTGG, the switch fluorescence ratio was 0.902.
With CGTATGTGAG the switch fluorescence ratio was 0.888.
With CGTATTCAAT the switch fluorescence ratio was 0.972.
Work on CGTATTGACG yielded a switch fluorescence ratio of 0.973.
For CGTCAATCGT, the switch fluorescence ratio was 1.06.
In the case of CGTCAATTGC, the switch fluorescence ratio is reported as 1.82.
With CGTCAATTGT the switch fluorescence ratio was 1.05.
In the case of CGTCAGACTG, the switch fluorescence ratio is reported as 1.04.
With CGTCAGAGCT the switch fluorescence ratio was 0.968.
CGTCATCCTT was tested, and the switch fluorescence ratio was 0.963.
CGTCATTAGT was tested, and the switch fluorescence ratio was 1.04.
In the case of CGTCATTCCA, the switch fluorescence ratio is reported as 0.979.
CGTCCAGCGG showed a switch fluorescence ratio of 1.1.
Sequence CGTCCAGGTA has a switch fluorescence ratio of 1.47.
CGTCCCCTA showed a switch fluorescence ratio of 1.04.
CGTCCCGGT showed a switch fluorescence ratio of 1.1.
With CGTCCCTA the switch fluorescence ratio was 0.987.
Sequence CGTCCGAGCT has a switch fluorescence ratio of 1.22.
CGTCCGTCAT showed a switch fluorescence ratio of 1.33.
With CGTCGAAAGT the switch fluorescence ratio was 0.981.
In the case of CGTCGAACGT, the switch fluorescence ratio is reported as 0.993.
In the case of CGTCGCCTTT, the switch fluorescence ratio is reported as 1.
CGTCGTTGCA showed a switch fluorescence ratio of 1.02.
CGTCTAAAGG gave a switch fluorescence ratio of 1.01.
In the case of CGTCTACGC, the switch fluorescence ratio is reported as 1.05.
CGTCTCATTA showed a switch fluorescence ratio of 0.978.
CGTCTCGGAG was tested, and the switch fluorescence ratio was 0.959.
Sequence CGTCTGATGC has a switch fluorescence ratio of 1.04.
With CGTCTGGTCG the switch fluorescence ratio was 1.04.
For CGTGACCTTC, the switch fluorescence ratio was 1.19.
For CGTGACGAAA, the switch fluorescence ratio was 1.42.
CGTGACGGGC showed a switch fluorescence ratio of 0.857.
CGTGACTGAG was tested, and the switch fluorescence ratio was 0.979.
For CGTGAGACGC, the switch fluorescence ratio was 0.967.
CGTGAGATAC was tested, and the switch fluorescence ratio was 1.46.
CGTGAGTGTA showed a switch fluorescence ratio of 1.
In the case of CGTGATGCTC, the switch fluorescence ratio is reported as 1.97.
CGTGCAGTAT was tested, and the switch fluorescence ratio was 1.06.
Work on CGTGCAGTTG yielded a switch fluorescence ratio of 1.03.
CGTGCCGGT gave a switch fluorescence ratio of 1.04.
Work on CGTGCCTAAG yielded a switch fluorescence ratio of 0.967.
In the case of CGTGCGGAGC, the switch fluorescence ratio is reported as 1.03.
Work on CGTGCGGG yielded a switch fluorescence ratio of 1.
CGTGCGTCCG was tested, and the switch fluorescence ratio was 0.894.
For CGTGCTACCT, the switch fluorescence ratio was 1.03.
CGTGCTAGGT gave a switch fluorescence ratio of 1.
CGTGCTCACA gave a switch fluorescence ratio of 1.
CGTGGAAGGC gave a switch fluorescence ratio of 1.05.
CGTGGACAGG showed a switch fluorescence ratio of 1.02.
Sequence CGTGGAGAA has a switch fluorescence ratio of 1.
CGTGGATTCT gave a switch fluorescence ratio of 0.977.
Work on CGTGGCGCAC yielded a switch fluorescence ratio of 1.07.
CGTGGCGGTG was tested, and the switch fluorescence ratio was 0.955.
With CGTGGTAGAT the switch fluorescence ratio was 1.07.
Sequence CGTGGTCACT has a switch fluorescence ratio of 1.02.
CGTGTAGAGC gave a switch fluorescence ratio of 1.02.
CGTGTAGCAG gave a switch fluorescence ratio of 0.971.
For CGTGTAGGA, the switch fluorescence ratio was 1.05.
CGTGTGCGAC showed a switch fluorescence ratio of 0.971.
CGTGTGGAGG was tested, and the switch fluorescence ratio was 1.01.
In the case of CGTGTTCAGG, the switch fluorescence ratio is reported as 0.999.
Work on CGTGTTGAGC yielded a switch fluorescence ratio of 1.01.
CGTGTTTAAG was tested, and the switch fluorescence ratio was 1.04.
Sequence CGTTAAGTAT has a switch fluorescence ratio of 0.982.
For CGTTAATG, the switch fluorescence ratio was 1.01.
Sequence CGTTAGGCGT has a switch fluorescence ratio of 0.998.
For CGTTATCTGT, the switch fluorescence ratio was 1.03.
With CGTTATGGAA the switch fluorescence ratio was 0.942.
Sequence CGTTATTTAA has a switch fluorescence ratio of 1.01.
With CGTTCAGACA the switch fluorescence ratio was 0.997.
With CGTTCCAATG the switch fluorescence ratio was 1.15.
For CGTTCCACTG, the switch fluorescence ratio was 1.03.
With CGTTCCTCAT the switch fluorescence ratio was 1.25.
CGTTCCTGCT gave a switch fluorescence ratio of 0.993.
CGTTCGAGAT showed a switch fluorescence ratio of 0.996.
Sequence CGTTCGCCGA has a switch fluorescence ratio of 0.898.
Work on CGTTCGTGCT yielded a switch fluorescence ratio of 0.997.
In the case of CGTTCTAATA, the switch fluorescence ratio is reported as 1.01.
CGTTCTCCGG gave a switch fluorescence ratio of 1.12.
In the case of CGTTGACATT, the switch fluorescence ratio is reported as 0.996.
For CGTTGATAAT, the switch fluorescence ratio was 0.99.
In the case of CGTTGATTGG, the switch fluorescence ratio is reported as 1.02.
CGTTGGCTTG showed a switch fluorescence ratio of 0.98.
With CGTTGGTCGG the switch fluorescence ratio was 0.988.
CGTTGTAGG showed a switch fluorescence ratio of 1.12.
CGTTGTCGAC showed a switch fluorescence ratio of 0.997.
With CGTTGTTAAC the switch fluorescence ratio was 0.995.
In the case of CGTTTAATTG, the switch fluorescence ratio is reported as 0.998.
In the case of CGTTTATAC, the switch fluorescence ratio is reported as 2.44.
With CGTTTATATC the switch fluorescence ratio was 1.02.
In the case of CGTTTCACCG, the switch fluorescence ratio is reported as 1.
In the case of CGTTTCCCCA, the switch fluorescence ratio is reported as 1.04.
Work on CGTTTCGGCT yielded a switch fluorescence ratio of 0.986.
Work on CGTTTCGTGA yielded a switch fluorescence ratio of 1.03.
Work on CGTTTGAGGT yielded a switch fluorescence ratio of 0.985.
CGTTTGGTTA was tested, and the switch fluorescence ratio was 1.01.
CGTTTGTAAA showed a switch fluorescence ratio of 0.978.
CGTTTTCCTC showed a switch fluorescence ratio of 0.91.
Work on CGTTTTCGAC yielded a switch fluorescence ratio of 0.978.
In the case of CGTTTTCGTC, the switch fluorescence ratio is reported as 0.912.

— the supplement of paper PMC10126150
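Note: ATP exposure 15 min at 22 °C before imaging.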
